Results reported in the supplement of paper PMC11417369.
This is one part of the list.

Test system: PfAP2-HC AP2 domain (GST-tagged)
Experiment: gcPBM binding intensity (ln(normalized median fluorescence intensity)); higher = stronger DNA binding
Procedure, shortened: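 GST-tagged P. falciparum DNA-binding domains produced in E. coli were incubated for 1 h on an Agilent 4 × 180k array of primer-extended double-stranded 36-bp intergenic genomic probes with negative controls. Binding intensity is the highest Masliner-normalised natural-log median intensity across replicate spots of either probe orientation, with bound protein detected by Alexa488 anti-GST antibody at 488 nm.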

Sequence | gcPBM binding intensity (ln)
TATTAATTTTTTTTTTTTTTTTTTTTTTTTTTTTTT [CACACA_negctrl_site1329] | 9.26
GTTATAAATAATAAATAAATAATCAAATGAAGAATG [CACACA_negctrl_site653] | 9.84
TCCTTATTTCATATTTTTAAATAATACAAAAAAAAA [CACACA_negctrl_site773] | 9.06
ATATATATTTATAATCGTACGTACCTAACAATACAA [XGTACX_site4510] | 9.62
AAATAAAAAAAAGCCTGTACATGTTCATAAATTTTT [XGTACX_site7925] | 9.65
GAATATTAAATATTATCACACACATAATTATTTCCA [CACACA_site8730] | 10.2
TTCTATTTATATGTGGGTACTAATTTTTTTTCTTTT [XGTACX_site7104] | 9.98
CTTAAATTAATTTGGGTGCATATATTTGTACACATT [GTGCAC_site9948] | 9.69
ATAAATATACCAATCGGTACACATTTATACAAACAA [XGTACX_site7484] | 9.68
AATAAATACACATACACACACGACGCTAGTATATGT [CACACA_site6627] | 10.6
AGAATAAATATGTGGTGTTATAGTATTAATGTTAAT [TGCATGCA_negctrl_site62] | 9.77
GCTATAAATATAATCACACATAAATATATAATATAT [CACACA_site5144] | 9.63
AGGAGGATAGTTCACAGTACCCAGGAAATCTGCGGA [XGTACX_site4928] | 9.51
TTTATTTTCCAAAGGGTGCACATAGTTAAAACGATA [GTGCAC_site9855] | 9.52
TATGCAATAAAATATACACACAATATACTTATATAT [CACACA_site7691] | 9.84
ATCTATATTCATAATACACACATTCTGTAGCATTAT [CACACA_site7058] | 9.88
TGATTAATTTTTAAATGTACTTAAAAATATACTTAT [XGTACX_site2872] | 9.47
TATATCATATAAAACCGTACATACATACTTAATTGT [XGTACX_site6822] | 9.69
AACAGGTCATAATTTACACACTATATATTTTATTAT [CACACA_site670] | 9.89
AGAAAACATATGTTTTGTACTTAAGAAAAAAAAAAA [XGTACX_site4231] | 9.59
TAACATATGGGACACACATGCAACTGTTATATGTCC [TGCATGCA_site959] | 10.2
TTTTATATGTTATATACACACATATAAATAAATATA [CACACA_site7418] | 9.5

Sequence | gcPBM binding intensity (ln)
AAAAATAAATAAATATGTACATATATACATATATAT [XGTACX_site5892] | 9.77
AAAAAAAAATTAAAATGTACACATAAAAAAAAAAAA [XGTACX_site794] | 9.81
TATTTATACCTATACACACACACACGGATATTTATA [CACACA_site7123] | 10.8
GATAAAATCACTGGTGCATGTAGATATATAATATTA [TGCATGCA_site589] | 9.65
ATATGCTTATTGTAAAGTACATTATTATTTTTCCTA [XGTACX_site5479] | 9.63
AATTAACAAAAACACACACACACACCGACAAAAAAA [CACACA_site4444] | 10.9
TACAAATATATATGCACACACATATACATACAGATA [CACACA_site5238] | 10
TGATGAAAATCTACATGAATGTTTTTATATCTATAT [GTGCAC_negctrl_site139] | 9.66
ATGAATAAATAAGACACACACGAAAATAAGTAAAAA [CACACA_site4216] | 10.8
TATTTTGATTATTCAGTGTATAAATATATATATATA [CACACA_negctrl_site545] | 9.52
CCAATGTTTTCTTGTGTACACATCATTAAAGAAAAA [CACACA_site5300] | 9.52
ATTCTATATGAAAAATGTACAAATAAAAATTCTAAG [XGTACX_site8900] | 9.59
CATGAAAATATTATGTGTACTTAATGCACATTCAAA [XGTACX_site1952] | 9.53
TAAAGAGAGACATCAACACACATACGTATGTATAGA [CACACA_site4896] | 9.87
AATATATTGTTTCCTGATATTAAATTCAATTTAATG [GTGCAC_negctrl_site22] | 9.43
ATTTACCTATATATTTGTACTTACATAATGCTACCT [XGTACX_site2693] | 9.74
TAAAAAAAAATATATAAACACACATATTTATATACA [CACACA_site8469] | 9.62
TATATATATTTTGGCTGTACATCAGCGTATATTTTT [XGTACX_site3233] | 9.7
AATAAATATATACATTGTACATATATAATATATATA [XGTACX_site1458] | 9.7
TAAATTATAATATGCACACAAAATGTTATATTAAAA [CACACA_site376] | 9.67
CCTATCCATGCATATACACACATATCTATTTATATA [CACACA_site6886] | 10
AAAAAAAAACAAAAAAGTACAAAATAAAAATACGTT [XGTACX_site4566] | 9.75

Sequence | gcPBM binding intensity (ln)
CTCTTCATATATAATTGTACACACAAAAACGACATT [XGTACX_site4287] | 9.81
ATAAGAATCATATTTAAACACACATACATATATATA [CACACA_site9106] | 10.1
ATTAAATAAACCATTACACACTTTTATGTTTTGAAA [CACACA_site1143] | 9.61
TTTTTATTGGTGAATACACACGTATATATATATTAT [CACACA_site8756] | 9.84
AAAAAAAAAAAATACACACACATAAAAAAAAAAATA [CACACA_site1858] | 10.9
ATTATATTAACAATGACATGCAATTCTTAATCCTTA [TGCATGCA_site648] | 9.56
AAAAAAAAATTGTGTACACATAATTATATCATATGT [CACACA_site4500] | 9.77
ATGGATAATAAGTTTACACACAAAAAAAAAGAAAAA [CACACA_site861] | 9.87
AAATAAAATAAATAATATAAAATAATATATAAAAAA [CACACA_negctrl_site1777] | 9.82
TTTTGTTAAAAAGATGTATATTTTATAAATATTTAT [CACACA_negctrl_site101] | 9.44
CACAAACAAAAACACACACACACACCGACAAAAATG [CACACA_site5362] | 10.6
AGAAAGAAGATATATACACACAAAAAAAGATATATA [CACACA_site6779] | 9.92
AAAAGAAGATAATACAGTACAGAATAATATAAAATA [XGTACX_site5962] | 9.81
TATAAATATTTATACACACACACATTAATACCTATA [CACACA_site7604] | 10.4
TTCTTTCTAGAATATTGTACATATATTGTTATTATA [XGTACX_site8425] | 9.72
GTCGAGGATATATAAAGTACATATATATATATGATA [XGTACX_site1128] | 9.6
TAATGTATCTAAAATTGTACAAATATAAATATAAAT [XGTACX_site2764] | 9.7
TAGTTAGCCCAAGGGGTGCTAATTACTATCTAAATA | 9.4
CATACATATAAACACACACACACACCCACCCACAAA [CACACA_site8059] | 10.6
AACACCAATTCATATGCACACACATCTGCATATTAT [CACACA_site8523] | 10.3
TTTATAAATATTCTCACACACTTTTTATTTTAACAA [CACACA_site6454] | 9.77
TATAGAAGCAAATTATGTACACAATATGGAAAATCA [XGTACX_site3345] | 9.85

Sequence | gcPBM binding intensity (ln)
TACAGTTTTTCTTTGAATTTATCAAGTTTTTTTCCC [XGTACX_negctrl_site60] | 9.52
ATTTAAAAAATATATTGTACATATTTTATTATGTTT [XGTACX_site2984] | 9.69
CACTAAATAAGGAAAGTGCATAAAATAAAGGTTATA [GTGCAC_site9793] | 9.69
TAGTTACCTTAATATTGTACTTTTCTTTCATATATG [XGTACX_site1309] | 9.66
GTGTCAAATTTTATAACACACAAAAGGTTATATAAG [CACACA_site7839] | 9.66
ATAGTTTCTGGTAGCTGTACGAGTCGTAGAGTGCAG [XGTACX_site2022] | 9.75
CATTATTATTTTATAACACACACATATATATTATAT [CACACA_site8405] | 10.2
ATGTTTTTTATTCTTCGTACGTATGAACGATAGTGT [XGTACX_site4225] | 9.74
AAACGTATGTTATTTACACACCCTTCCACTTTTATA [CACACA_site3337] | 10
TATAAAATAAGACATGCATGTTATACATATATATTT [TGCATGCA_site156] | 10
AAATTAAAAAAAAATAAATAAAAAAAAAAAAAAAAT [CACACA_negctrl_site1611] | 9.66
TTTTTTTTTTCTACAAGTACATATTTTCATTTAACA [XGTACX_site6621] | 9.6
AAAAAAAAAAAAAAATGTACATATATATATTATAAA [XGTACX_site518] | 9.5
ATGTGCAAATATTAAAGTACTAAATTTTATTATTTT [XGTACX_site7306] | 9.66
ATAAATACATATAAAAGTACACACACACACATATAT [XGTACX_site1744] | 10.9
TGAAATTTCAATACATGTACATATAAAAAAAAAAAA [XGTACX_site4424] | 9.67
TGTATATGTGAAGCAAGGGATGCGGCAGACATAACA [CACACA_negctrl_site1339] | 9.95
GGGTATATATTATTATGTACACATGTATAAAATAAG [XGTACX_site2633] | 9.65
ATATTACATAATATATGTACACACGCAAATACTTAT [XGTACX_site671] | 9.9
CAGATAGACTTATATGCATGCATTCACCTGCCAACA [TGCATGCA_site158] | 9.66
TAAGCATAAATGTATACATGCGATGCATACACATAT [TGCATGCA_site749] | 9.55
ATGAAATTATATTGGGGTACGTCAAAAAAGGAGATA [XGTACX_site7451] | 9.59
